Assay results: paper PMC2686680, “Chibby forms a homodimer through a heptad repeat of leucine residues in its C-terminal coiled-coil motif” (BMC Molecular Biology, 2009)
These are yes or no findings as the source states them, for the method shown. For part of these data: Binding seen in cells or lysates may run through a third protein. Some binding calls cover weakened binding; strength is not graded here.

Amino acid sequences for entries named in this document (tags omitted).
UniProt P01100: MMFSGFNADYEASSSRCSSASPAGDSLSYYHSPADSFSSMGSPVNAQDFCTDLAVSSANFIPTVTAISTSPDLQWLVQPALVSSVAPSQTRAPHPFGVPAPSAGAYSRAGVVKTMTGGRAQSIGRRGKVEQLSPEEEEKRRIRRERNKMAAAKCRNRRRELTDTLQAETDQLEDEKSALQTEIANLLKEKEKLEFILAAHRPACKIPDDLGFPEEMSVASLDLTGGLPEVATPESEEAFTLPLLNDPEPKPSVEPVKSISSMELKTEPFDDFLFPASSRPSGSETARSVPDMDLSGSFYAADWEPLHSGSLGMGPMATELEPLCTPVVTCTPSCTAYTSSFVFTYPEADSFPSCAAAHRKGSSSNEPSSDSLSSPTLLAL
UniProt O00629: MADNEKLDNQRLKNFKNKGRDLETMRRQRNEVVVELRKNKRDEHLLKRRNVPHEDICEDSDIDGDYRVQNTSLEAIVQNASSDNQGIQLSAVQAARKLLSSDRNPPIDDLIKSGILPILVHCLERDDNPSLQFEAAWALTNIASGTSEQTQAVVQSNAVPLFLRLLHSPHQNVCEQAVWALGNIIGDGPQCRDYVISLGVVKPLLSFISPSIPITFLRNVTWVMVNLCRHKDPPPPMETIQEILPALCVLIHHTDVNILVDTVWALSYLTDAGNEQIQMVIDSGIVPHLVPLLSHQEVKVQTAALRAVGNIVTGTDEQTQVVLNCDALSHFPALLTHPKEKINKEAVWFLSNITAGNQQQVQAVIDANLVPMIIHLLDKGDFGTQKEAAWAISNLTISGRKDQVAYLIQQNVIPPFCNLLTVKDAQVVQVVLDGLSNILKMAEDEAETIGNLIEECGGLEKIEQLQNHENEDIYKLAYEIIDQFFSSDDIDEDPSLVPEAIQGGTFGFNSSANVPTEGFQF
UniProt P05412: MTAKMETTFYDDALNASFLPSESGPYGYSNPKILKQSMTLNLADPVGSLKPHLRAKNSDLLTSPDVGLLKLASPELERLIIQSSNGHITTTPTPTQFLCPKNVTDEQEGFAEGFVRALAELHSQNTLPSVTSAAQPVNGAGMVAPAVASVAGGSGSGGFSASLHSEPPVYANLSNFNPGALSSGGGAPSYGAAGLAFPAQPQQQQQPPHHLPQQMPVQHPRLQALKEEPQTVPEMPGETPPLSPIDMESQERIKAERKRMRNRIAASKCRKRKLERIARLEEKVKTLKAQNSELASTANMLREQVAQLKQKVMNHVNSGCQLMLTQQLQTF

Experiments:
[1] = biological target: Cby4A fused to RN or RC of hRluc (human) (UniProt Q9Y3M2); experiment: split reporter; split synthetic Renilla luciferase (hRluc) protein-fragment-assisted complementation; RN and RC fusion plasmids (400 ng each) in HEK293T, Rluc activity measured 24 hr post-transfection (Dual Luciferase Reporter Assay System), normalised to firefly luciferase
[2] = biological target: Cby L77A fused to RN or RC of hRluc (human) (UniProt Q9Y3M2); experiment: as above
[3] = biological target: Cby L77A/L84A fused to RN or RC of hRluc (human) (UniProt Q9Y3M2); experiment: as above
[4] = biological target: Cby L77A/L91A fused to RN or RC of hRluc (human) (UniProt Q9Y3M2); experiment: as above
[5] = biological target: Cby L77A/L98A fused to RN or RC of hRluc (human) (UniProt Q9Y3M2); experiment: as above
[6] = biological target: Cby L84A fused to RN or RC of hRluc (human) (UniProt Q9Y3M2); experiment: as above
[7] = biological target: Cby L84A/L91A fused to RN or RC of hRluc (human) (UniProt Q9Y3M2); experiment: as above
[8] = biological target: Cby L84A/L98A fused to RN or RC of hRluc (human) (UniProt Q9Y3M2); experiment: as above
[9] = biological target: Cby L91A fused to RN or RC of hRluc (human) (UniProt Q9Y3M2); experiment: as above
[10] = biological target: Cby L91A/L98A fused to RN or RC of hRluc (human) (UniProt Q9Y3M2); experiment: as above
[11] = biological target: Cby L98A fused to RN or RC of hRluc (human) (UniProt Q9Y3M2); experiment: as above
[12] = biological target: Cby wild type fused to the N-terminal (RN) or C-terminal (RC) portion of synthetic Renilla luciferase (hRluc) (human) (UniProt Q9Y3M2); experiment: split reporter; split hRluc complementation in live HEK293T cells in 96-well plates; cell-permeable ViviRen substrate added to the medium 24 hr post-transfection
[13] = biological target: Fos fused to the C-terminal portion of hRluc (UniProt P01100); experiment: as above
[14] = biological target: Cby wild type fused to the N-terminal (RN) or C-terminal (RC) portion of synthetic Renilla luciferase (hRluc) (human) (UniProt Q9Y3M2); experiment: split reporter; split synthetic Renilla luciferase (hRluc) protein-fragment-assisted complementation; RN and RC fusion plasmids (400 ng each) in HEK293T, Rluc activity measured 24 hr post-transfection (Dual Luciferase Reporter Assay System), normalised to firefly luciferase
[15] = biological target: Chibby (Cby) wild type, epitope-tagged (Flag-CbyWT, Myc-Cby, HA-CbyWT) (human) (UniProt Q9Y3M2); experiment: co-IP; HEK293T co-transfected with Flag-Cby and HA-Cby; IP with anti-HA; immunoprecipitates washed three times with 0.135, 0.5, 1.0, 1.5 or 2.0 M NaCl, or 0.5, 1.0, 1.5 or 2.0 M urea (with 0.135 M NaCl); blot with anti-Flag
[16] = biological target: Chibby (Cby) wild type, epitope-tagged (Flag-CbyWT, Myc-Cby, HA-CbyWT) (human) (UniProt Q9Y3M2); experiment: co-IP; HEK293T co-transfected with two differently tagged Cby constructs; lysis buffer 20 mM Tris-HCl pH 8.0, 135 mM NaCl, 1.5 mM MgCl2, 1 mM EGTA, 1% Triton X-100, 10% glycerol; IP with anti-Myc (Fig. 1A) or anti-HA (Fig. 4B), blot with anti-Flag
[17] = biological target: MBP-Cby L77A (human) (UniProt Q9Y3M2); experiment: pull-down; in vitro: bacterially produced MBP-Cby proteins incubated with His-βcatR10-C or GST-importin-α3, pulled down with amylose resin, Western blot with anti-β-catenin or anti-GST; both purified
[18] = biological target: MBP-Cby L91A (human) (UniProt Q9Y3M2); experiment: as above
[19] = biological target: MBP-CbyWT (human) (UniProt Q9Y3M2); experiment: as above
[20] = biological target: His-Cby4A (human) (UniProt Q9Y3M2); experiment: cross-linking; purified His-Cby, 0.2% glutaraldehyde at 37°C for 5 or 20 min in 20 mM Hepes pH 7.9, 100 mM NaCl, 1 mM EDTA, 0.1% NP-40, 10% glycerol; SDS-PAGE, anti-Cby blot; both purified
[21] = biological target: His-CbyL77A/L91A (human) (UniProt Q9Y3M2); experiment: as above
[22] = biological target: His-tagged Cby wild type (human) (UniProt Q9Y3M2); experiment: SEC; as a5 but buffer with 0.5 M NaCl (data not shown); both purified
[23] = biological target: His-tagged Cby wild type (human) (UniProt Q9Y3M2); experiment: cross-linking; purified His-Cby, dimethyl suberimidate (DMS) 2 mg/ml at room temperature for 30 min in the dialysis buffer; SDS-PAGE, anti-Cby blot; both purified

Molecule: Cby4A fused to RN or RC of hRluc (from UniProt Q9Y3M2 1-126)
- binding [1]: no binding

Molecule: Cby L77A fused to RN or RC of hRluc (from UniProt Q9Y3M2 1-126)
- binding [2]: binds

Molecule: Cby L77A/L84A fused to RN or RC of hRluc (from UniProt Q9Y3M2 1-126)
- binding [3]: no binding

Molecule: Cby L77A/L91A fused to RN or RC of hRluc (from UniProt Q9Y3M2 1-126)
- binding [4]: no binding

Molecule: Cby L77A/L98A fused to RN or RC of hRluc (from UniProt Q9Y3M2 1-126)
- binding [5]: no binding

Molecule: Cby L84A fused to RN or RC of hRluc (from UniProt Q9Y3M2 1-126)
- binding [6]: binds

Molecule: Cby L84A/L91A fused to RN or RC of hRluc (from UniProt Q9Y3M2 1-126)
- binding [7]: no binding

Molecule: Cby L84A/L98A fused to RN or RC of hRluc (from UniProt Q9Y3M2 1-126)
- binding [8]: no binding

Molecule: Cby L91A fused to RN or RC of hRluc (from UniProt Q9Y3M2 1-126)
- binding [9]: binds

Molecule: Cby L91A/L98A fused to RN or RC of hRluc (from UniProt Q9Y3M2 1-126)
- binding [10]: no binding

Molecule: Cby L98A fused to RN or RC of hRluc (from UniProt Q9Y3M2 1-126)
- binding [11]: binds

Molecule: Cby wild type fused to the N-terminal (RN) or C-terminal (RC) portion of synthetic Renilla luciferase (hRluc) (from UniProt Q9Y3M2 1-126)
- binding [12]: binds
- binding [13]: no binding
- binding [14]: binds

Molecule: Chibby (Cby) wild type, epitope-tagged (Flag-CbyWT, Myc-Cby, HA-CbyWT) (from UniProt Q9Y3M2 1-126)
- binding [15]: binds
- binding [16]: binds

Molecule: Flag-Cby4A (from UniProt Q9Y3M2 1-126)
- binding [16]: no binding

Molecule: Flag-Cby L77A/L84A (from UniProt Q9Y3M2 1-126)
- binding [16]: no binding

Molecule: Flag-Cby L77A/L84A/L91A (from UniProt Q9Y3M2 1-126)
- binding [16]: no binding

Molecule: Flag-Cby L77A/L84A/L98A (from UniProt Q9Y3M2 1-126)
- binding [16]: no binding

Molecule: Flag-Cby L77A/L91A/L98A (from UniProt Q9Y3M2 1-126)
- binding [16]: no binding

Molecule: Flag-Cby L77A/L98A (from UniProt Q9Y3M2 1-126)
- binding [16]: no binding

Molecule: Flag-Cby L84A/L91A (from UniProt Q9Y3M2 1-126)
- binding [16]: no binding

Molecule: Flag-Cby L84A/L91A/L98A (from UniProt Q9Y3M2 1-126)
- binding [16]: no binding

Molecule: Flag-Cby L84A/L98A (from UniProt Q9Y3M2 1-126)
- binding [16]: no binding

Molecule: Flag-Cby L91A/L98A (from UniProt Q9Y3M2 1-126)
- binding [16]: no binding

Molecule: Flag-Cby L98A (from UniProt Q9Y3M2 1-126)
- binding [16]: binds

Molecule: Flag-CbyL77A (from UniProt Q9Y3M2 1-126)
- binding [16]: binds

Molecule: Flag-CbyL77A/L91A (from UniProt Q9Y3M2 1-126)
- binding [16]: no binding

Molecule: Flag-CbyL84A (from UniProt Q9Y3M2 1-126)
- binding [16]: binds

Molecule: Flag-CbyL91A (from UniProt Q9Y3M2 1-126)
- binding [16]: binds

Molecule: GST-importin-α3 (from UniProt O00629 1-521)
- binding [17]: binds
- binding [18]: binds
- binding [19]: binds

Molecule: His-Cby4A (from UniProt Q9Y3M2 1-126)
- binding [20]: no binding

Molecule: His-CbyL77A/L91A (from UniProt Q9Y3M2 1-126)
- binding [21]: no binding

Molecule: Jun fused to the N-terminal portion of hRluc (from UniProt P05412 1-331)
- binding [12]: no binding

B1: His-tagged Cby wild type (natural protein, human, UniProt Q9Y3M2 1-126, looked up)
chain: MPFFGNTFSPKKTPPRKSASLSNLHSLDRSTREVELGLEYGSPTMNLAGQSLKFENGQWIAETGVSGGVDRREVQRLRRRNQQLEEENNLLRLKVDILLDMLSESTAESHLMEKELDELRISRKRK
notes: Chibby (Cby), human, 126 amino acids; Cby cDNA in pcDNA4/HisMax A; the vector pcDNA4/HisMax A probably adds further N-terminal residues besides the His tag (surmise); also called His-Cby; His-CbyWT; source: transiently transfected for cross-linking), purified (nickel beads / Ni-NTA)
- binding [22]: binds
- binding [23]: binds
